# According to publication PMC12820563:
# The list shows a part of the results. The list includes weakly bound sequences.
# Target: T1, MBP-FoxP3dN (UniProt Q99JB6)
# T1 sequence: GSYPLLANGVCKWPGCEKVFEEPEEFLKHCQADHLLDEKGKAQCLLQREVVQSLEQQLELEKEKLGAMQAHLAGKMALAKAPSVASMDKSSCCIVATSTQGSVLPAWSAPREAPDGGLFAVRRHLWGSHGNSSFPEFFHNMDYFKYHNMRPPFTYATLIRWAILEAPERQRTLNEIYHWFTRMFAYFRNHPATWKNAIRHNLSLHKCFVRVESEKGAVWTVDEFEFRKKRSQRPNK
# Assay: PD-seq (MBP pull-down with sequencing)
# Details: 20 mM Tris-HCl pH 7.5, 100 mM NaCl, 1.5 mM MgCl2, 0.4 uM protein, 0.1 uM dsDNA library, 30 min, room temperature, amylose pull-down; high values mean tight binding; double strand, one strand shown
row,Sequence,binding signal (RPM ratio (pull-down/input))
1,GATGATTGTTCTCCCAGCTGATGAATTTTGACACTCGAGTAAACAAATTTTCCTAATCTTTCTGTTCAAGCGCCATCTAC,2.91
2,GATGATTGTTCTCCCAGCTGATGAATTGACTGTTTCGAGTAAACAAATTTTCCTAATCTTTCTGTTCAAGCGCCATCTAC,0.564
3,GATGATTGTTCTCCCAGCTGATGAATTTAATAGCTCGAGTAAACAAATTTTCCTAATCTTTCTGTTCAAGCGCCATCTAC,1.63
4,GATGATTGTTCTCCCAGCTGATGAATTGGAAGGATCGAGTAAACAAATTTTCCTAATCTTTCTGTTCAAGCGCCATCTAC,0.193
5,GATGATTGTTCTCCCAGCTGATGAATTCGTGCTCTCGAGTAAACAAATTTTCCTAATCTTTCTGTTCAAGCGCCATCTAC,0.608
6,GATGATTGTTCTCCCAGCTGATGAATTCCTTACTTCGAGTAAACAAATTTTCCTAATCTTTCTGTTCAAGCGCCATCTAC,0.246
7,GATGATTGTTCTCCCAGCTGATGAATTTGAGAGATCGAGTAAACAAATTTTCCTAATCTTTCTGTTCAAGCGCCATCTAC,0.232
8,GATGATTGTTCTCCCAGCTGATGAATTATCCGGGTCGAGTAAACAAATTTTCCTAATCTTTCTGTTCAAGCGCCATCTAC,0.173
9,GATGATTGTTCTCCCAGCTGATGAATTAGGGAAGTCGAGTAAACAAATTTTCCTAATCTTTCTGTTCAAGCGCCATCTAC,0.209
10,GATGATTGTTCTCCCAGCTGATGAATTATACGCCTCGAGTAAACAAATTTTCCTAATCTTTCTGTTCAAGCGCCATCTAC,0.63
11,GATGATTGTTCTCCCAGCTGATGAATTGGTTGCGTCGAGTAAACAAATTTTCCTAATCTTTCTGTTCAAGCGCCATCTAC,1.98
12,GATGATTGTTCTCCCAGCTGATGAATTGCCGGACTCGAGTAAACAAATTTTCCTAATCTTTCTGTTCAAGCGCCATCTAC,0.37
13,GATGATTGTTCTCCCAGCTGATGAATTACGCAAGTCGAGTAAACAAATTTTCCTAATCTTTCTGTTCAAGCGCCATCTAC,1.91
14,GATGATTGTTCTCCCAGCTGATGAATTGACTATATCGAGTAAACAAATTTTCCTAATCTTTCTGTTCAAGCGCCATCTAC,0.464
15,GATGATTGTTCTCCCAGCTGATGAATTTGAAAGATCGAGTAAACAAATTTTCCTAATCTTTCTGTTCAAGCGCCATCTAC,0.178
16,GATGATTGTTCTCCCAGCTGATGAATTGTTCAATTCGAGTAAACAAATTTTCCTAATCTTTCTGTTCAAGCGCCATCTAC,0.409
17,GATGATTGTTCTCCCAGCTGATGAATTTCTCATATCGAGTAAACAAATTTTCCTAATCTTTCTGTTCAAGCGCCATCTAC,0.364
18,GATGATTGTTCTCCCAGCTGATGAATTATATTTGTCGAGTAAACAAATTTTCCTAATCTTTCTGTTCAAGCGCCATCTAC,5.66
19,GATGATTGTTCTCCCAGCTGATGAATTGGTGTCGTCGAGTAAACAAATTTTCCTAATCTTTCTGTTCAAGCGCCATCTAC,1.18
20,GATGATTGTTCTCCCAGCTGATGAATTAGCGGTTTCGAGTAAACAAATTTTCCTAATCTTTCTGTTCAAGCGCCATCTAC,0.702
21,GATGATTGTTCTCCCAGCTGATGAATTGGACTCCTCGAGTAAACAAATTTTCCTAATCTTTCTGTTCAAGCGCCATCTAC,0.395

row,Sequence,binding signal (RPM ratio (pull-down/input))
1,GATGATTGTTCTCCCAGCTGATGAATTGGGTACTTCGAGTAAACAAATTTTCCTAATCTTTCTGTTCAAGCGCCATCTAC,0.488
2,GATGATTGTTCTCCCAGCTGATGAATTGCCCTCATCGAGTAAACAAATTTTCCTAATCTTTCTGTTCAAGCGCCATCTAC,0.621
3,GATGATTGTTCTCCCAGCTGATGAATTGGCCAGATCGAGTAAACAAATTTTCCTAATCTTTCTGTTCAAGCGCCATCTAC,0.202
4,GATGATTGTTCTCCCAGCTGATGAATTGTCCGATTCGAGTAAACAAATTTTCCTAATCTTTCTGTTCAAGCGCCATCTAC,0.288
5,GATGATTGTTCTCCCAGCTGATGAATTTTGACATTCGAGTAAACAAATTTTCCTAATCTTTCTGTTCAAGCGCCATCTAC,2.04
6,GATGATTGTTCTCCCAGCTGATGAATTGGAATGGTCGAGTAAACAAATTTTCCTAATCTTTCTGTTCAAGCGCCATCTAC,0.373
7,GATGATTGTTCTCCCAGCTGATGAATTATTGCGCTCGAGTAAACAAATTTTCCTAATCTTTCTGTTCAAGCGCCATCTAC,1.24
8,GATGATTGTTCTCCCAGCTGATGAATTTCGTAGGTCGAGTAAACAAATTTTCCTAATCTTTCTGTTCAAGCGCCATCTAC,0.422
9,GATGATTGTTCTCCCAGCTGATGAATTTAATGATTCGAGTAAACAAATTTTCCTAATCTTTCTGTTCAAGCGCCATCTAC,1.64
10,GATGATTGTTCTCCCAGCTGATGAATTATAAAAGTCGAGTAAACAAATTTTCCTAATCTTTCTGTTCAAGCGCCATCTAC,0.212
11,GATGATTGTTCTCCCAGCTGATGAATTTGCCATGTCGAGTAAACAAATTTTCCTAATCTTTCTGTTCAAGCGCCATCTAC,1.45
12,GATGATTGTTCTCCCAGCTGATGAATTCCGACACTCGAGTAAACAAATTTTCCTAATCTTTCTGTTCAAGCGCCATCTAC,1.97
13,GATGATTGTTCTCCCAGCTGATGAATTGAATGCATCGAGTAAACAAATTTTCCTAATCTTTCTGTTCAAGCGCCATCTAC,2.15
14,GATGATTGTTCTCCCAGCTGATGAATTGCCCTTGTCGAGTAAACAAATTTTCCTAATCTTTCTGTTCAAGCGCCATCTAC,0.446
15,GATGATTGTTCTCCCAGCTGATGAATTGTCCAAATCGAGTAAACAAATTTTCCTAATCTTTCTGTTCAAGCGCCATCTAC,0.312
16,GATGATTGTTCTCCCAGCTGATGAATTGCAATACTCGAGTAAACAAATTTTCCTAATCTTTCTGTTCAAGCGCCATCTAC,1.55
17,GATGATTGTTCTCCCAGCTGATGAATTCGATTGGTCGAGTAAACAAATTTTCCTAATCTTTCTGTTCAAGCGCCATCTAC,3.14
18,GATGATTGTTCTCCCAGCTGATGAATTCAGGATGTCGAGTAAACAAATTTTCCTAATCTTTCTGTTCAAGCGCCATCTAC,0.37
19,GATGATTGTTCTCCCAGCTGATGAATTCACGCTATCGAGTAAACAAATTTTCCTAATCTTTCTGTTCAAGCGCCATCTAC,0.944
20,GATGATTGTTCTCCCAGCTGATGAATTGCGGATATCGAGTAAACAAATTTTCCTAATCTTTCTGTTCAAGCGCCATCTAC,0.849
21,GATGATTGTTCTCCCAGCTGATGAATTATTGCGATCGAGTAAACAAATTTTCCTAATCTTTCTGTTCAAGCGCCATCTAC,1.08

row,Sequence,binding signal (RPM ratio (pull-down/input))
1,GATGATTGTTCTCCCAGCTGATGAATTGAGCATCTCGAGTAAACAAATTTTCCTAATCTTTCTGTTCAAGCGCCATCTAC,6.26
2,GATGATTGTTCTCCCAGCTGATGAATTGTCAAACTCGAGTAAACAAATTTTCCTAATCTTTCTGTTCAAGCGCCATCTAC,0.314
3,GATGATTGTTCTCCCAGCTGATGAATTACGGCCGTCGAGTAAACAAATTTTCCTAATCTTTCTGTTCAAGCGCCATCTAC,0.423
4,GATGATTGTTCTCCCAGCTGATGAATTCACGAGCTCGAGTAAACAAATTTTCCTAATCTTTCTGTTCAAGCGCCATCTAC,0.201
5,GATGATTGTTCTCCCAGCTGATGAATTACATTCCTCGAGTAAACAAATTTTCCTAATCTTTCTGTTCAAGCGCCATCTAC,0.575
6,GATGATTGTTCTCCCAGCTGATGAATTGCCGAAATCGAGTAAACAAATTTTCCTAATCTTTCTGTTCAAGCGCCATCTAC,0.5
7,GATGATTGTTCTCCCAGCTGATGAATTTTATCCATCGAGTAAACAAATTTTCCTAATCTTTCTGTTCAAGCGCCATCTAC,0.449
8,GATGATTGTTCTCCCAGCTGATGAATTTTATGGCTCGAGTAAACAAATTTTCCTAATCTTTCTGTTCAAGCGCCATCTAC,0.599
9,GATGATTGTTCTCCCAGCTGATGAATTTGGATCGTCGAGTAAACAAATTTTCCTAATCTTTCTGTTCAAGCGCCATCTAC,0.426
10,GATGATTGTTCTCCCAGCTGATGAATTTCGTCAATCGAGTAAACAAATTTTCCTAATCTTTCTGTTCAAGCGCCATCTAC,0.411
11,GATGATTGTTCTCCCAGCTGATGAATTCAGCTTGTCGAGTAAACAAATTTTCCTAATCTTTCTGTTCAAGCGCCATCTAC,2.84
12,GATGATTGTTCTCCCAGCTGATGAATTTGTGGCCTCGAGTAAACAAATTTTCCTAATCTTTCTGTTCAAGCGCCATCTAC,3.98
13,GATGATTGTTCTCCCAGCTGATGAATTACAGCATTCGAGTAAACAAATTTTCCTAATCTTTCTGTTCAAGCGCCATCTAC,5.18
14,GATGATTGTTCTCCCAGCTGATGAATTGCTGCGTTCGAGTAAACAAATTTTCCTAATCTTTCTGTTCAAGCGCCATCTAC,1.69
15,GATGATTGTTCTCCCAGCTGATGAATTTATTTTGTCGAGTAAACAAATTTTCCTAATCTTTCTGTTCAAGCGCCATCTAC,5.94
16,GATGATTGTTCTCCCAGCTGATGAATTGCGGCAATCGAGTAAACAAATTTTCCTAATCTTTCTGTTCAAGCGCCATCTAC,2.99
17,GATGATTGTTCTCCCAGCTGATGAATTGTTGAACTCGAGTAAACAAATTTTCCTAATCTTTCTGTTCAAGCGCCATCTAC,0.447
18,GATGATTGTTCTCCCAGCTGATGAATTCTGCGTGTCGAGTAAACAAATTTTCCTAATCTTTCTGTTCAAGCGCCATCTAC,5.15
19,GATGATTGTTCTCCCAGCTGATGAATTGTCCGGGTCGAGTAAACAAATTTTCCTAATCTTTCTGTTCAAGCGCCATCTAC,0.178
20,GATGATTGTTCTCCCAGCTGATGAATTTGCCTGGTCGAGTAAACAAATTTTCCTAATCTTTCTGTTCAAGCGCCATCTAC,0.914
21,GATGATTGTTCTCCCAGCTGATGAATTGTCACGCTCGAGTAAACAAATTTTCCTAATCTTTCTGTTCAAGCGCCATCTAC,0.524
